# From the supplement of paper PMC8728848
# This is one part of the list.
# B1: LCA (Lens culinaris), P02870 (protein)
# chain: MASLQTQMISFYLIFLSILLTTIFFFKVNSTETTSFSITKFSPDQKNLIFQGDGYTTKGKLTLTKAVKSTVGRALYSTPIHIWDRDTGNVANFVTSFTFVIDAPSSYNVADEFTFFIAPVDTKPQTGGGYLGVFNSKEYDKTSQTVAVEFDTFYNAAWDPSNKERHIGIDVNSIKSVNTKSWNLQNGERANVVIAFNAATNVLTVTLTYPNSLEEENVTSYTLNEVVPLKDVVPEWVRIGFSATTGAEFAAHEVHSWSFHSELGGTSSSKQAADA
# What was measured:
# Assay in all cases: glycan array binding signal (z-score within array); higher = stronger binding
# Conditions in all cases: glycan notation: IUPAC condensed, linker removed
# [1] = molecular target: Fuc(a1-4)GlcNAc
# Summary of the method: (§1)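 Glycan array binding is given as a within-array Z-score, which can be read as non-binding when negative. The arrays, 3228 of them, came from the Consortium for Functional Glycomics database and were retained only where the protein sequence was available. Z-scores were averaged across arrays of the same protein sequence at different concentrations or buffers and across linkers.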
# [2] = molecular target: Fuc(b1-3)GlcNAc
# Summary of the method: as §1
# [3] = molecular target: Gal(a1-2)Gal
# Summary of the method: as §1
# [4] = molecular target: Gal(a1-3)Gal
# Summary of the method: as §1
# [5] = molecular target: Gal(a1-3)Gal(b1-3)GlcNAc
# Summary of the method: as §1
# [6] = molecular target: Gal(a1-3)Gal(b1-3)GlcNAc(b1-2)Man
# Summary of the method: as §1
# [7] = molecular target: Gal(a1-3)Gal(b1-3)GlcNAc(b1-2)Man(a1-3)[Gal(a1-3)Gal(b1-3)GlcNAc(b1-2)Man(a1-6)]Man(b1-4)GlcNAc(b1-4)GlcNAc
# Summary of the method: as §1
# [8] = molecular target: Gal(a1-3)Gal(b1-3)GlcNAc(b1-3)GalNAc
# Summary of the method: as §1
# [9] = molecular target: Gal(a1-3)Gal(b1-3)GlcNAc(b1-6)GalNAc
# Summary of the method: as §1
# [10] = molecular target: Gal(a1-3)Gal(b1-3)[Fuc(a1-4)]GlcNAc(b1-2)Man(a1-3)[Gal(a1-3)Gal(b1-3)[Fuc(a1-4)]GlcNAc(b1-2)Man(a1-6)]Man(b1-4)GlcNAc(b1-4)GlcNAc
# Summary of the method: as §1
# [11] = molecular target: Gal(a1-3)Gal(b1-4)Glc
# Summary of the method: as §1
# [12] = molecular target: Gal(a1-3)Gal(b1-4)GlcNAc
# Summary of the method: as §1
# [13] = molecular target: Gal(a1-3)Gal(b1-4)GlcNAc(b1-2)Man
# Summary of the method: as §1
# [14] = molecular target: Gal(a1-3)Gal(b1-4)GlcNAc(b1-2)Man(a1-3)[Gal(a1-3)Gal(b1-4)GlcNAc(b1-2)Man(a1-6)]Man(b1-4)GlcNAc(b1-4)GlcNAc
# Summary of the method: as §1
# [15] = molecular target: Gal(a1-3)Gal(b1-4)GlcNAc(b1-3)GalNAc
# Summary of the method: as §1
# [16] = molecular target: Gal(a1-3)Gal(b1-4)GlcNAc(b1-6)GalNAc
# Summary of the method: as §1
# [17] = molecular target: Gal(a1-3)Gal(b1-4)[Fuc(a1-3)]GlcNAc
# Summary of the method: as §1
# [18] = molecular target: Gal(a1-3)Gal(b1-4)[Fuc(a1-3)]GlcNAc(b1-2)Man(a1-3)[Gal(a1-3)Gal(b1-4)[Fuc(a1-3)]GlcNAc(b1-2)Man(a1-6)]Man(b1-4)GlcNAc(b1-4)GlcNAc
# Summary of the method: as §1
# [19] = molecular target: Gal(a1-3)GalNAc
# Summary of the method: as §1
# [20] = molecular target: Gal(a1-3)[Gal(a1-4)]Gal(b1-4)GlcNAc
# Summary of the method: as §1
# [21] = molecular target: Gal(a1-4)Gal(b1-3)GlcNAc(b1-2)Man(a1-3)[Gal(a1-4)Gal(b1-3)GlcNAc(b1-2)Man(a1-6)]Man(b1-4)GlcNAc(b1-4)GlcNAc
# Summary of the method: as §1
# [22] = molecular target: Gal(a1-4)Gal(b1-4)Glc
# Summary of the method: as §1
# [23] = molecular target: Gal(a1-4)Gal(b1-4)GlcNAc
# Summary of the method: as §1
# [24] = molecular target: Gal(a1-4)Gal(b1-4)GlcNAc(b1-2)Man(a1-3)[Gal(a1-4)Gal(b1-4)GlcNAc(b1-2)Man(a1-6)]Man(b1-4)GlcNAc(b1-4)GlcNAc
# Summary of the method: as §1
# [25] = molecular target: Gal(a1-4)Gal(b1-4)GlcNAc(b1-3)Gal(b1-4)Glc
# Summary of the method: as §1
# [26] = molecular target: Gal(a1-4)GlcNAc
# Summary of the method: as §1
# [27] = molecular target: Gal(a1-6)Glc
# Summary of the method: as §1
# [28] = molecular target: Gal(b1-2)Gal
# Summary of the method: as §1
# [29] = molecular target: Gal(b1-3)Gal
# Summary of the method: as §1
# [30] = molecular target: Gal(b1-3)Gal(b1-4)GlcNAc
# Summary of the method: as §1
# [31] = molecular target: Gal(b1-3)GalNAc
# Summary of the method: as §1
# [32] = molecular target: Gal(b1-3)GalNAc(a1-3)[Fuc(a1-2)]Gal(b1-4)Glc
# Summary of the method: as §1
# [33] = molecular target: Gal(b1-3)GalNAc(a1-3)[Fuc(a1-2)]Gal(b1-4)GlcNAc
# Summary of the method: as §1
# [34] = molecular target: Gal(b1-3)GalNAc(b1-3)Gal
# Summary of the method: as §1
# [35] = molecular target: Gal(b1-3)GalNAc(b1-3)Gal(a1-4)Gal(b1-4)Glc
# Summary of the method: as §1
# [36] = molecular target: Gal(b1-3)GalNAc(b1-4)Gal(b1-4)Glc
# Summary of the method: as §1
# [37] = molecular target: Gal(b1-3)GalNAc(b1-4)[Neu5Ac(a2-3)]Gal(b1-4)Glc
# Summary of the method: as §1
# [38] = molecular target: Gal(b1-3)GlcNAc
# Summary of the method: as §1
binder,measurement,setting,value
B1,glycan array binding signal (z-score),[1],-0.198
same,glycan array binding signal (z-score),[2],-0.186
same,glycan array binding signal (z-score),[3],-0.221
same,glycan array binding signal (z-score),[4],-0.221
same,glycan array binding signal (z-score),[5],-0.21
same,glycan array binding signal (z-score),[6],-0.089
same,glycan array binding signal (z-score),[7],-0.202
same,glycan array binding signal (z-score),[8],-0.227
same,glycan array binding signal (z-score),[9],-0.193
same,glycan array binding signal (z-score),[10],-0.319
same,glycan array binding signal (z-score),[11],-0.218
same,glycan array binding signal (z-score),[12],-0.22
same,glycan array binding signal (z-score),[13],-0.26
same,glycan array binding signal (z-score),[14],-0.078
same,glycan array binding signal (z-score),[15],-0.241
same,glycan array binding signal (z-score),[16],-0.219
same,glycan array binding signal (z-score),[17],-0.224
same,glycan array binding signal (z-score),[18],-0.194
same,glycan array binding signal (z-score),[19],-0.159
same,glycan array binding signal (z-score),[20],-0.205
same,glycan array binding signal (z-score),[21],0.099
same,glycan array binding signal (z-score),[22],-0.176
same,glycan array binding signal (z-score),[23],-0.172
same,glycan array binding signal (z-score),[24],-0.125
same,glycan array binding signal (z-score),[25],-0.221
same,glycan array binding signal (z-score),[26],-0.239
same,glycan array binding signal (z-score),[27],-0.228
same,glycan array binding signal (z-score),[28],-0.167
same,glycan array binding signal (z-score),[29],-0.252
same,glycan array binding signal (z-score),[30],-0.245
same,glycan array binding signal (z-score),[31],-0.232
same,glycan array binding signal (z-score),[32],-0.265
same,glycan array binding signal (z-score),[33],-0.255
same,glycan array binding signal (z-score),[34],-0.196
same,glycan array binding signal (z-score),[35],-0.209
same,glycan array binding signal (z-score),[36],-0.202
same,glycan array binding signal (z-score),[37],-0.218
same,glycan array binding signal (z-score),[38],-0.212
